# Patent publication US20100203647A1, “Chemical Reporters of Protein Acylation” (THE ROCKEFELLER UNIVERSITY, priority 2008, published 2010)
# Tests used:
# [1] = system: newly synthesized proteins; conditions: cited from earlier work
# p300 [2] = biological target: T1, p300 (Homo sapiens, UniProt Q09472); assay: In vitro acylation of histone H3 protein by p300 and mapping of modification sites (spectral counts, nano-HPLC/MS/MS); type: biochemical
# T1 construct: made in house; host or cells: SF9 insect cells, baculovirus
# Protocol: Following the in vitro reaction, proteins were separated on 15% SDS-PAGE and stained with coomassie brilliant blue R-250 staining solution (Bio-Rad). The gel slices containing histone H3 products were excised from each lane, washed with 50 mM ammonium bicarbonate (ABC) twice, destained with 50 mM ABC/CH3CN (50/50) twice and dehydrated with CH3CN. After drying the gel slices in a SpeedVac, gel slices were rehydrated with trypsin solution (2 μg of trypsin for each vial/gel slice) and incubated in 37° C. water bath for 18 hrs. Trypsin-digested peptides in solution were collected, dried in SpeedVac, resuspended in H2O (with 0.1% TFA) and submitted samples to nano-HPLC/MS/MS analysis (Thermo LTQ-Orbitrap in the Proteomic Resource Center at Rockefeller University).
# LC-MS analysis was performed with a Dionex 3000 nano-HPLC coupled to an LTQ-Orbitrap ion trap mass spectrometer (ThermoFisher). Peptides were pressure loaded onto a home made 75 μm diameter, 15 cm C18 reverse phase column and separated with a gradient running from 95% buffer A (HPLC water with 0.1% formic acid) and 5% buffer B (HPLC grade acetonitrile with 0.1% formic acid) to 55% B over 30 min, next ramping to 95% B over 10 min and holding 95% B for 10 min. One full MS scan (300-2000 MW) was followed by 3 data dependent scans of the nth most intense ions with dynamic exclusion enabled. The spray voltage was set to 1.94 kV and the flow rate through the column was set to 0.25 μL/min.
# Raw tandem mass spectra were searched against the human IPI protein database version 3.56 using SEQUEST search engine (Thermo Scientific). Cysteine carbamido-methylation was searched as fixed modification, while methionine/tryptophan oxidation, asparagines/glutamine deamindation, lysine/serine/threonine/cysteine acetylation, N-terminal acetylation/3-butynylation/4-pentynylation/5-hexynylation and lysine 3-butynylation/4-pentynylation/5-hexynylation were searched as variable modifications. Peptide tolerance was set as 10.0 ppm, fragment ion tolerance was set as 1.0 AMU and trypsin was set as the digestion enzyme. The resulting searching files were then analyzed and visualized by Scaffold 2 proteome software.
# Each identified protein must contain at least 2 unique peptides that are exclusively assigned to this protein with a minimum protein identification probability of 99%. Each peptide spectrum must meet several selection thresholds including >95% for peptide identification probability, >1.0 for SEQUEST XCorr score, and ±6 ppm for actual minus calculated peptide mass.
# p300 [3] = biological target: T1, p300; assay: MALDI-TOF analysis of p300-catalyzed acylation of histone H3 peptide in vitro; type: biochemical; conditions: 20 μM analog, MS analysis
# Protocol: Cells were lysed in lysis buffer (20 mM Tris, pH 7.5, 500 mM NaCl, 4 mM MgCl2, 0.4 mM EDTA, 20% glycerol, 2 mM DTT, and supplemented with protease inhibitors). Clarified cell lysates were diluted to 300 mM NaCl, and NP-40 was added to 0.1% final concentration. Flag M2 agarose resin (Sigma) was added to the lysate and incubated for 4 hours at 4° C. […] Protein concentration and purity were estimated by comparison to BSA standards on SDS gels stained with Gelcode Blue stain (Pierce).
# p300 [4] = biological target: T1, p300; assay: In-gel fluorescent detection of p300-catalyzed in vitro acylation of histone H3; type: biochemical; conditions: CuAAC with az-Rho, in-gel fluorescence
# From the text: CuAAC reactions were allowed to proceed at room temperature for 1 hr, and proteins were subsequently separated on 15% SDS-PAGE. The gels were soaked in destaining solution (40% MeOH, 10% AcOH, 50% H2O) for 1-2 hrs to remove the non-covalently bound az-Rho dye. After washing with dd H2O, the gel was subjected to in-gel fluorescence scanning.
# Jurkat cells = assay: Metabolic labeling with inhibitors; conditions: CHX 10 μM, HMA 1 mM, 2-BP 50 μM, 30 minutes pre-incubation
# Jurkat T cells = assay: Metabolic labeling of Jurkat T cells with alkynyl-acetate analogs, CuAAC with az-Rho, in-gel fluorescence scanning; conditions: 100 μM CHX, Jurkat T cells
# [5] = system: metabolic incorporation of chemical reporters; assay: Effect of inhibitors/additives on metabolic incorporation of alkynyl-chemical reporters; type: cell-based
# [6] = lysine-modified peptide, H3 + acyl-CoA + p300
# [7] = lysine-modified peptide, H3 + acyl-CoA, without p300
# T1 sequence (Q09472 whole entry): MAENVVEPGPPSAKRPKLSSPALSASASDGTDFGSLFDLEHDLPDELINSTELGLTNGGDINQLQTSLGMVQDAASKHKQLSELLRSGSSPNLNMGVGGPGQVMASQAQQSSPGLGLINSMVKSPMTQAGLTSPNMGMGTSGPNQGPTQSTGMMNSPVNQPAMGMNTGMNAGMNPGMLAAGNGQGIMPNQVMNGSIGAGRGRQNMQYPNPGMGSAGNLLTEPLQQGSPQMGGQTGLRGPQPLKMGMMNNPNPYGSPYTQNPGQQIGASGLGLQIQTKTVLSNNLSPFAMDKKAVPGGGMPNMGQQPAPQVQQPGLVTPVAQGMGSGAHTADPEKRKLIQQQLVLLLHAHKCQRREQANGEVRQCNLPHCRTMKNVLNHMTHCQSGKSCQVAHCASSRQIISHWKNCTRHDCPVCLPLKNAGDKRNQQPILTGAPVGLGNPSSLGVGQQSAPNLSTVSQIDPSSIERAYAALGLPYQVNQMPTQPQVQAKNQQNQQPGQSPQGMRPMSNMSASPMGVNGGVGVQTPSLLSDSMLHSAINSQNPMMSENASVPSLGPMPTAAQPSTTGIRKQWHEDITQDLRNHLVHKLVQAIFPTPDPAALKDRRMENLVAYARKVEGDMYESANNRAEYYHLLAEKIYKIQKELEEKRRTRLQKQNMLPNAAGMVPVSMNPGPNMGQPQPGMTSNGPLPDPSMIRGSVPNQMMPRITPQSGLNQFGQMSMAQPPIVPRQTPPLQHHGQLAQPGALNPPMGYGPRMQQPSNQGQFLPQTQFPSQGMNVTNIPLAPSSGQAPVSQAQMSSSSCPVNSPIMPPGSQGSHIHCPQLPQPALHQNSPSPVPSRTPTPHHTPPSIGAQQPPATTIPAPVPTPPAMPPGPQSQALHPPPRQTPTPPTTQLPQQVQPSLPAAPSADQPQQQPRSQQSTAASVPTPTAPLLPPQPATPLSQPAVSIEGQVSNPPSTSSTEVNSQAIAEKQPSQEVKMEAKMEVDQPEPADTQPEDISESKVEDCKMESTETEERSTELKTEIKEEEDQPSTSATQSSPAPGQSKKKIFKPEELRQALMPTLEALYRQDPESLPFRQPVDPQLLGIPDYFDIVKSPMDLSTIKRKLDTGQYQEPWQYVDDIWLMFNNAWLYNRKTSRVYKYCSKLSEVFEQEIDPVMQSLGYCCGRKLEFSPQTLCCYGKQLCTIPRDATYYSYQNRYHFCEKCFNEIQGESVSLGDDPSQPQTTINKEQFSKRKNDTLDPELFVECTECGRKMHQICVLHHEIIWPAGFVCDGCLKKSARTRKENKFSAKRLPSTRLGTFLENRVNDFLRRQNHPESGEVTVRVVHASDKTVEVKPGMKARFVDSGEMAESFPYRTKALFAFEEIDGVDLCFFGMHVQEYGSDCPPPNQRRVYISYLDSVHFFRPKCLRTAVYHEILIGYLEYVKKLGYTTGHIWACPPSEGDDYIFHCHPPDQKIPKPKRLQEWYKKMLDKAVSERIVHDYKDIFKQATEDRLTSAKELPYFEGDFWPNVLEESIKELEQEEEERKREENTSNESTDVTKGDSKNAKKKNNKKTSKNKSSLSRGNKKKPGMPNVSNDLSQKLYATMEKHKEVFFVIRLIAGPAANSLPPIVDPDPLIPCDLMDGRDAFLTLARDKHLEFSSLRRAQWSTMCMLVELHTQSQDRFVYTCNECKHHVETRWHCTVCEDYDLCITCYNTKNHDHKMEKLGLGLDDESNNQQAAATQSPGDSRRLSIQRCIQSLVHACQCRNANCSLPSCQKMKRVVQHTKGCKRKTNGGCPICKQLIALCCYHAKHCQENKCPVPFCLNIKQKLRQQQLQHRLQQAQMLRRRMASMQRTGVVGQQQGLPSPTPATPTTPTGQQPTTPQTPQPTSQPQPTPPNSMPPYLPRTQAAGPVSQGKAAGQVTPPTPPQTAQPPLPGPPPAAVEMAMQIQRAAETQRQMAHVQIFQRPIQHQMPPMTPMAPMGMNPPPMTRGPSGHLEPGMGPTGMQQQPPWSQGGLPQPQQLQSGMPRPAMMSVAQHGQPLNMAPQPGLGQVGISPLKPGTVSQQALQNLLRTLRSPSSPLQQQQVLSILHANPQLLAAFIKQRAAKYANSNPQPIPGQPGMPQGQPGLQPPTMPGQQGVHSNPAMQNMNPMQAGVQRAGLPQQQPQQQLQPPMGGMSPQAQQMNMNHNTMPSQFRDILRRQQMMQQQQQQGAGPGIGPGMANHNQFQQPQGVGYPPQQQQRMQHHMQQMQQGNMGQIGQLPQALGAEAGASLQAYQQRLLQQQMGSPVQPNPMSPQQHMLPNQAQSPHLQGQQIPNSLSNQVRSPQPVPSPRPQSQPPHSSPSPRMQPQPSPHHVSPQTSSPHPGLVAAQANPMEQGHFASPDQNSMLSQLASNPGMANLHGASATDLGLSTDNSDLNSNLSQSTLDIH
SMILES,Spectral Counts of Peptide EIAQDFK (73-79) (SEQ ID NO: 7) (p300 [2]; H3 + acyl-CoA + p300),Spectral Counts of Peptide KSAPATGGVK (27-36) (SEQ ID NO: 2) (p300 [2]; H3 + acyl-CoA + p300),Spectral Counts of Peptide VTIMPK (117-122) (SEQ ID NO: 9) (p300 [2]; H3 + acyl-CoA + p300),Spectral Counts of Peptide YRPGTVALR (41-49) (SEQ ID NO: 4) (p300 [2]; H3 + acyl-CoA + p300),"Spectral Counts of Peptide EIAQDFK (73-79) (SEQ ID NO: 7) (p300 [2]; H3 + acyl-CoA, without p300)","Spectral Counts of Peptide KSAPATGGVK (27-36) (SEQ ID NO: 2) (p300 [2]; H3 + acyl-CoA, without p300)","Spectral Counts of Peptide SAPATGGVK (28-36) SEQ ID NO: 3 (p300 [2]; H3 + acyl-CoA, without p300)","Spectral Counts of Peptide VTIMPK (117-122) (SEQ ID NO: 9) (p300 [2]; H3 + acyl-CoA, without p300)","Spectral Counts of Peptide YRPGTVALR (41-49) (SEQ ID NO: 4) (p300 [2]; H3 + acyl-CoA, without p300)","Spectral Counts of Peptide KQLATK (18-23, K18) (SEQ ID NO: 13) (p300 [2]; [6])","Spectral Counts of Peptide KQLATKAAR (18-26, K18, K23) (SEQ ID NO: 15) (p300 [2]; [6])","Spectral Counts of Peptide KSAPATGGVK (27-36, K27) (SEQ ID NO: 17) (p300 [2]; [6])","Spectral Counts of Peptide KSTGGKAPR (9-17, K9, K14) (SEQ ID NO: 11) (p300 [2]; [6])","Spectral Counts of Peptide KSTGGKAPR (9-17, K14) (SEQ ID NO: 10) (p300 [2]; [6])","Spectral Counts of Peptide KSAPATGGVK (27-36, K27) (SEQ ID NO: 17) (p300 [2]; [7])",further results
"[N-]=[N+]=NCC[C@H](N)C(=O)O [AHA, (S)-2-amino-4-azidobutanoic acid]",–,–,–,–,–,–,–,–,–,–,–,–,–,–,–,toxicity of protein synthesis reporter [1]: no observed toxicity
"CC(=O)SCCNC(=O)CCNC(=O)[C@H](O)C(C)(C)COP(=O)(O)OP(=O)(O)OC[C@H]1O[C@@H](n2cnc3c(N)ncnc32)[C@H](O)[C@@H]1OP(=O)(O)O [AcCoA, acetyl-CoA, reference compound]",22,6,1,2,23,21,2,10,3,2,138,34,60,8,12,"Spectral Counts of Peptide KLPFQR (64-69) (SEQ ID NO: 6) (p300 [2]; H3 + acyl-CoA + p300): 1; Spectral Counts of Peptide KSAPATGGVK (27-36, K27, K36) (SEQ ID NO: 18) (p300 [2]; [6]): 4; Spectral Counts of Peptide QLATKAAR (19-26, K23) (SEQ ID NO: 16) (p300 [2]; [6]): 1; Spectral Counts of Peptide RVTIMPKDIQLAR (116-128, K122) (SEQ ID NO: 22) (p300 [2]; [6]): 2; Spectral Counts of Peptide RYQKSTELLIR (53-63, K56) (SEQ ID NO: 21) (p300 [2]; [6]): 5; Spectral Counts of Peptide KQLATKAAR (18-26, K18, K23) (SEQ ID NO: 15) (p300 [2]; [7]): 4; Spectral Counts of Peptide KSTGGKAPR (9-17, K9, K14) (SEQ ID NO: 11) (p300 [2]; [7]): 18; Spectral Counts of Peptide KSTGGKAPR (9-17, K14) (SEQ ID NO: 10) (p300 [2]; [7]): 1; Spectral Counts of Peptide RYQKSTELLIR (53-63, K56) (SEQ ID NO: 21) (p300 [2]; [7]): 2"
C#CCCC(=O)SCCNC(=O)CCNC(=O)[C@H](O)C(C)(C)COP(=O)(O)OP(=O)(O)OC[C@H]1O[C@@H](n2cnc3c(N)ncnc32)[C@H](O)[C@@H]1OP(=O)(O)O [Analog 2],25,17,4,3,27,23,9,5,2,10,18,25,12,16,3,"Spectral Counts of Peptide SAPATGGVK (28-36) SEQ ID NO: 3 (p300 [2]; H3 + acyl-CoA + p300): 7; Spectral Counts of Peptide KLPFQR (64-69) (SEQ ID NO: 6) (p300 [2]; H3 + acyl-CoA, without p300): 1; Spectral Counts of Peptide KQLATKAAR (18-26, K23) (SEQ ID NO: 14) (p300 [2]; [6]): 3; Spectral Counts of Peptide STGGKAPR (10-17, K14) (SEQ ID NO: 12) (p300 [2]; [6]): 9; Spectral Counts of Peptide KQLATKAAR (18-26, K23) (SEQ ID NO: 14) (p300 [2]; [7]): 1; utilization as acyl-CoA donor for p300-catalyzed acylation of histone H3 peptide (p300 [3]): readily utilized by p300; visualization of p300-acylation of histone H3 (p300 [4]): serve as sensitive reagents for visualizing p300-acylation of histone H3"
"C[C@@H]1C[C@@H]([C@H](O)CC2CC(=O)NC(=O)C2)C(=O)[C@@H](C)C1 [CHX, cycloheximide, reference compound]",–,–,–,–,–,–,–,–,–,–,–,–,–,–,–,"effect of inhibitor on alkynyl-fatty acid protein labeling (alk-12, alk-14, alk-16, 20 μM) (Jurkat cells): abrogated the metabolic labeling of several prominent polypeptides by alk-12; effect on incorporation of methionine surrogate AHA into proteins (Jurkat T cells): completely blocked; effect on metabolic incorporation of alkynyl-chemical reporters (alk-4, alk-12, alk-16) [5]: did not inhibit the metabolic incorporation; effect on metabolic incorporation of alkynyl-chemical reporters (alk-4, alk-12, alk-16) ([5]; listed as cyclohexamide): still detected"

# Like-named read-outs stand apart in the source and are kept apart here.
